Results taken from PubChem BioAssay AID504333 (National Center for Advancing Translational Sciences (NCATS), 2011).
About 16,000 (4.4%) of roughly 360,000 compounds were called active. Inconclusive results, whose numbers are uncertain, are shown with a selection of clear calls. Calls follow the shape of the dose curve; as a rule, active = well fitted inhibition curve with a large enough effect; inconclusive = small, poorly fitted or top-dose-only effect; inactive = no such curve, though single readings can be large or run the other way. Where the call is inconclusive, the potency comes from a doubtful curve fit.

target: Bromodomain adjacent to zinc finger domain protein 2B (Homo sapiens) (UniProt Q9UIF8); assay: qHTS Assay for Inhibitors of BAZ2B; conditions: AlphaScreen BAZ2B-H3K14Ac peptide displacement; activity change, negative = inhibition: at 114 µM (top of the series) unless noted; also: nearly all actives have a fitted effect of over 60% in size
Outline: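 AlphaScreen displacement: compounds (up to 110uM) incubated 30 min at room temperature with a preformed 50 nM BAZ2B/50 nM biotinylated H3K14Ac peptide complex in PBS pH 7.4 with Tween-20. Donor and acceptor beads at 10 ug/mL final added, 20 min light-protected before reading.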
% is scaled to controls: 0 for no effect and ±100 for the full control effect; potency is read from the fitted curve at half-maximal effect; tags tell the direction and shape of the fitted curve.

Chain of UniProt Q9UIF8 (Q9UIF8 whole entry, looked up, the tested form may be a part): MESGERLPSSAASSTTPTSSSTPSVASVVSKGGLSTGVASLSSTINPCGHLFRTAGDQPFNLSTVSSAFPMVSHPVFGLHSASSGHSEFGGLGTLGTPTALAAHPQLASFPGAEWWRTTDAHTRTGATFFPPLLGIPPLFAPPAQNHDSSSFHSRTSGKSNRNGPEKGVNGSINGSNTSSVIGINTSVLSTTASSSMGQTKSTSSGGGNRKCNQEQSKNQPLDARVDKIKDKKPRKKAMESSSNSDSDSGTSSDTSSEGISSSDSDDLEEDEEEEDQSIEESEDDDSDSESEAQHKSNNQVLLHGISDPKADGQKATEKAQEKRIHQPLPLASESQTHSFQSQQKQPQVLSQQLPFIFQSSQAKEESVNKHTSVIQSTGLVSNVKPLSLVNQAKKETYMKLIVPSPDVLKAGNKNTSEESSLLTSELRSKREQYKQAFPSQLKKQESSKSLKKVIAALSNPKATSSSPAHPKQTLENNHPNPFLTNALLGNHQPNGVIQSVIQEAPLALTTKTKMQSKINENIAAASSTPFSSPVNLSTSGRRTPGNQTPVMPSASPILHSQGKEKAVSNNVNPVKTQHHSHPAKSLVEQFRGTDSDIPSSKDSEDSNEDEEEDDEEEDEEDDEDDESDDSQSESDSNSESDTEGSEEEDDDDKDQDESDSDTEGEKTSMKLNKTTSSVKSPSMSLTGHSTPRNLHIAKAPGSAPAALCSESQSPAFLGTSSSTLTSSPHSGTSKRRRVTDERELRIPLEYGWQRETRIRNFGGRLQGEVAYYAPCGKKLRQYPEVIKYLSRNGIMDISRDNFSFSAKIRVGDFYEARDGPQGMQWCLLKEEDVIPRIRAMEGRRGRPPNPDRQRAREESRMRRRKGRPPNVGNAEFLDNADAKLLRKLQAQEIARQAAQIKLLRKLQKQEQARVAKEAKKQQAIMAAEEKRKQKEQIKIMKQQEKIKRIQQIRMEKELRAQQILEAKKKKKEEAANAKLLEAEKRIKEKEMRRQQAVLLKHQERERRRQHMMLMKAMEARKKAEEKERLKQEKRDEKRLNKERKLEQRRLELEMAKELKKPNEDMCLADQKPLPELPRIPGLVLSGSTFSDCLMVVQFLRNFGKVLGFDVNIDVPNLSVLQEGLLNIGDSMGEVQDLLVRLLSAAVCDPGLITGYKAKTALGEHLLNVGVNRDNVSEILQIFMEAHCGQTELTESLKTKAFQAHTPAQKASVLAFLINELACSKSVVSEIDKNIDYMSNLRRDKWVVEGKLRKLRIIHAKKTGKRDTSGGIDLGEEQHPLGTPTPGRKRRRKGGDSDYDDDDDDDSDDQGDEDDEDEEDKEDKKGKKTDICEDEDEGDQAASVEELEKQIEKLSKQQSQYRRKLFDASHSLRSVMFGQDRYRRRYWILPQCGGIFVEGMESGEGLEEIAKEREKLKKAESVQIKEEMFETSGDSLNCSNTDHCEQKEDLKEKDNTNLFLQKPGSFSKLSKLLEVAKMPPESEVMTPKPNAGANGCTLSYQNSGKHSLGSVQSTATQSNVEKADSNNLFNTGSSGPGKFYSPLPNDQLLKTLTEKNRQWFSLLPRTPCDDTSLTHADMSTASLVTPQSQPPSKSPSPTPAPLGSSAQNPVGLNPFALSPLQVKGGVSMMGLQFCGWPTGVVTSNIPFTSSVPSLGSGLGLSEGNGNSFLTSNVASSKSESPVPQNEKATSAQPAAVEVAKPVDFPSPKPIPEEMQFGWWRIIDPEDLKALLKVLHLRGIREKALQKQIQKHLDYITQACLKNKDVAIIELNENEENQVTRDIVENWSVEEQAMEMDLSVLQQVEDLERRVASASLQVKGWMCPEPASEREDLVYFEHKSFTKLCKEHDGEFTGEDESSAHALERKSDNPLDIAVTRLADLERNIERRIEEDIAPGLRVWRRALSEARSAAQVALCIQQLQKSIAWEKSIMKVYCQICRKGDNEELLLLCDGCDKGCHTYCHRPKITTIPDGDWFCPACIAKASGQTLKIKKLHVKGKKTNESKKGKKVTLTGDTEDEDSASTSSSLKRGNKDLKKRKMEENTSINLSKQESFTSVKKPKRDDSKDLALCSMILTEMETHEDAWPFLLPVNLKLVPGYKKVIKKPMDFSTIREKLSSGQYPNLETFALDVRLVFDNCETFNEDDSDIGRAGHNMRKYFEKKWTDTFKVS

Structure (SMILES) | activity change, negative = inhibition | Potency
Cc1cc(C)c2c(n1)sc1c(=O)n(Cc3ccc(F)cc3)cnc12 | inactive: -1.42% | 
CC(=O)NC(Cc1c[nH]c2ccccc12)C(=O)N/N=C/c1ccccc1 (stereo unspecified) |  | inconclusive: 89.1 µM [inhibitor, single point]
Cc1ccccc1CSCCNC(=O)C1CCN(S(=O)(=O)Cc2ccccc2)CC1 |  | inconclusive: 89.1 µM [inhibitor, single point]
CC(C)c1ccc(C2c3c(oc4ccc(Cl)cc4c3=O)C(=O)N2CCCN2CCOCC2)cc1 (stereo unspecified) |  | inconclusive: 89.1 µM [inhibitor, single point]
CC(C)c1nnc(NC(=O)CCC(=O)NC2CC2)s1 | inactive: -4.01% | 
Cc1ccc(-n2nc3ccc(N)cc3n2)cc1Cl |  | inconclusive: 100 µM [inhibitor, single point]
Cc1cc2c(cc3c(SCc4cccc(F)c4)nnc(C)n32)o1 |  | inconclusive: 22.4 µM [inhibitor, full curve]
CC(SC(=S)N1CCCC1)C(=O)O (stereo unspecified) |  | inconclusive: 89.1 µM [inhibitor, single point]
COc1cc2c(cc1OC)CN(C(=O)c1cc(C3CC3)nn1-c1ccccc1)CC2 |  | inconclusive: 89.1 µM [inhibitor, single point]
CCOC(=O)C1=C(C)N(c2ccc(C)cc2)C(=O)/C1=C\c1ccc(O)c(OC)c1 |  | active: 44.7 µM
CC1CC(C)CN(C(=O)COC(=O)COc2ccccc2C#N)C1 (stereo unspecified) | inactive: -0.456% | 
COc1ccc(NC(=O)c2ccc(CNc3c(NC4CCCCC4)c(=O)c3=O)cc2)cc1OC |  | inconclusive: 79.4 µM [inhibitor, single point]
O=C(CCc1ccccc1)N1CCc2c([nH]c3ccccc23)C1c1ccc(Cl)cc1 (stereo unspecified) |  | inconclusive: 31.6 µM [inhibitor, full curve, poor fit]
CCc1ccc2oc(-c3ccc(OC)cc3)cc(=Nc3cccc(C(=O)O)c3)c2c1 | inactive: -38.4% | 
Cc1ccc(C2c3c(oc4ccc(Cl)cc4c3=O)C(=O)N2CCCN2CCOCC2)o1 (stereo unspecified) | inactive: -35.8% | 
COC(=O)CCC(=O)Nc1sc2c(c1C#N)CCCC2 |  | inconclusive: 79.4 µM [inhibitor, single point]
Cc1cc(NCCCn2ccnc2)n2nc(-c3ccc(F)cc3)cc2n1 |  | inconclusive: 89.1 µM [inhibitor, single point]
NC(=O)CC(NC(=O)c1cccc(Br)c1)c1ccc(N2CCC(Br)CC2)c([N+](=O)[O-])c1 (stereo unspecified) |  | inconclusive: 79.4 µM [inhibitor, single point]
CN1CCN(c2ccc(S(=O)(=O)N3CCCCC3)cc2NC(=O)COc2ccc(F)cc2)CC1 |  | inconclusive: 70.8 µM [inhibitor, single point]
Cc1cccc(NC(=S)NCC23C=CC(O2)C2C(=O)N(c4ccc(Cl)cc4)C(=O)C23)c1 (stereo unspecified) |  | inconclusive: 70.8 µM [inhibitor, single point]
CC(C)NC(=O)COc1ncnc2sccc12 | inactive: -4.21% | 
O=C(N/N=C\c1ccccn1)c1ccccc1O | inactive: -1.09% | 
O=C(Oc1c(Cl)cc(Cl)c2cccnc12)c1cccc([N+](=O)[O-])c1 |  | active: 28.2 µM
Cc1ccc(Cn2c(CO)cnc2SCc2cccc(F)c2)cc1 |  | inconclusive: 35.5 µM [inhibitor, partial curve]
CCn1nc(C)c(CNC(=O)C2CCC(=O)N(CCc3ccc(OC)cc3)C2)c1C (stereo unspecified) | inactive: -3.11% [at 57.1 µM] | 
CCCOc1ccc(C(C(=O)OCCN(CC)CC)c2ccccc2)cc1 (stereo unspecified) |  | active: 50.1 µM

Structure (SMILES) | activity change, negative = inhibition | Potency
N=C1C(c2nc(-c3ccc(Cl)cc3)cs2)=C(O)CN1CCCN1CCOCC1 |  | inconclusive: 50.1 µM [inhibitor, partial curve]
CCn1c2ccccc2c2cc(NC(=O)COC(=O)c3ccc(NC(=O)CC#N)cc3)ccc21 |  | inconclusive: 39.8 µM [inhibitor, single point]
CCn1ccnc1CN1CCCCC1C(=O)Nc1ccc(Oc2cccnc2)cc1 (stereo unspecified) |  | inconclusive: 79.4 µM [inhibitor, single point]
N#CCSc1n[nH]c2nc3c(c(=O)n12)C1(CCCCC1)Cc1ccccc1-3 | inactive: -2.12% | 
CC(C)c1ccc(Nc2c(-c3ccccn3)nc3ccccn23)cc1 |  | active: 22.4 µM
Cc1onc(-c2c(Cl)cccc2Cl)c1C(=O)N1CCOCC1 |  | active: 79.4 µM
Cc1occc1C(=O)N1CCCC(Nc2ccc(C(C)C)cc2)C1 (stereo unspecified) |  | inconclusive: 50.1 µM [inhibitor, partial curve]
CN1C(=S)N(c2cccnc2)C(=O)/C1=C\c1ccc(N(C)C)cc1 |  | active: 11.2 µM
Cc1oc(-c2ccc(C(F)(F)F)cc2)nc1CN(Cc1ccccn1)C[C@@H]1CCC(=O)N1 |  | inconclusive: 70.8 µM [inhibitor, single point]
COc1cc(/C=C/C(=O)Nc2nnc(CC(C)(C)C)s2)cc(OC)c1OC | inactive: -11.5% | 
COc1cc(OC)c(C(=O)Nc2cccc3ccccc23)cc1OC | inactive: 3.65% | 
Cc1onc(-c2ccccc2Cl)c1C(=O)c1ccccc1 | inactive: 15.3% | 
O=C(C(Cc1ccccc1)n1cccc1)N1CCN(C2CCCCC2)CC1 (stereo unspecified) |  | inconclusive: 50.1 µM [inhibitor, partial curve]
CC(NS(=O)(=O)c1ccccc1)C(=O)NC1CCCC1 (stereo unspecified) | inactive: -1.95% | 
O=C(Cn1cnc([N+](=O)[O-])c1)Nc1ccccc1C(F)(F)F | inactive: 16.3% | 
Cc1cccc(NC(=O)CN(C)S(=O)(=O)c2ccccc2)n1 | inactive: -3.18% | 
c1ccc(CN2CCC(Nc3nc(-c4cccnc4)nc4ccccc34)CC2)cc1 |  | inconclusive: 70.8 µM [inhibitor, single point]
COc1cc(CN(C)C)cc(C=O)c1O | inactive: -11.9% | 
COc1cc(C(=O)N2CCN(C(=O)c3cc(-c4ccc(Br)cc4)n[nH]3)CC2)cc(OC)c1OC |  | inconclusive: 70.8 µM [inhibitor, single point]
CN1CCN(C(c2ccc(F)cc2)c2nnnn2Cc2cccs2)CC1 (stereo unspecified) |  | inconclusive: 89.1 µM [inhibitor, single point]
c1ccc(-c2nc3cnccn3c2Nc2ccc3c(c2)OCCO3)cc1 |  | inconclusive: 50.1 µM [inhibitor, partial curve]
Cc1ccccc1/C=C/C(=O)c1ccc([N+](=O)[O-])o1 |  | active: 35.5 µM
Cn1c(=O)c2c(-c3ccc(Cl)cc3)n(CCc3ccccc3)cc2n(C)c1=O |  | inconclusive: 35.5 µM [inhibitor, partial curve]
Cc1ccc(C(=O)CCC(=O)OCC(=O)Nc2nnc(-c3ccccc3)o2)cc1 |  | inconclusive: 100 µM [inhibitor, single point]
CCN1CCCc2cc(CN(CCN3CCOCC3)C(=O)Nc3ccc(C)c(C)c3)ccc21 |  | active: 44.7 µM
CC1(N2CCOCC2)CC2(O)C(=[N+]1[O-])CCc1nonc12 (stereo unspecified) |  | inconclusive: 56.2 µM [inhibitor, partial curve]

Structure (SMILES) | activity change, negative = inhibition | Potency
CCCN1C(=O)S/C(=C\c2ccc(N3CCOCC3)o2)C1=O | inactive: -37.6% | 
COc1cc(C)ccc1OCCCCN1CC(C)OC(C)C1 (stereo unspecified) |  | active: 50.1 µM
CCn1nc(C)c(NC(=O)/C=C/c2ccc(OC)c(COc3ccc(Br)cc3)c2)c1C |  | inconclusive: 89.1 µM [inhibitor, single point]
O=C1C(Cl)=C(Nc2ccc(O)cc2)C(=O)c2ccccc21 |  | inconclusive: 2.82 µM [inhibitor, full curve]
COc1ccc(-n2ncc3c(NCc4ccccn4)ncnc32)cc1 |  | inconclusive: 89.1 µM [inhibitor, single point]
Cc1ccccc1OCC(=O)Nc1ccccc1OCc1cc(=O)n2ccccc2n1 | inactive: 7.82% | 
Nc1ccc(C(=O)N/N=C\c2cc(N=Nc3cccc4ccccc34)ccc2O)cc1 |  | active: 44.7 µM
O=C(N/N=C/c1ccoc1)c1ccccc1O |  | inconclusive: 56.2 µM [inhibitor, partial curve, poor fit]
O=C(NCCO)c1ccc2nc(-c3ccco3)c(-c3ccco3)nc2c1 |  | inconclusive: 89.1 µM [inhibitor, single point]
COc1cccc(CN2CCN(Cc3cc(OC)c(OC)cc3[N+](=O)[O-])CC2)c1 |  | inconclusive: 39.8 µM [inhibitor, single point]
O=C(Oc1cccc2cccnc12)c1ccc(Br)o1 |  | active: 50.1 µM
CC1Cn2c(C(=O)NCc3ccccc3Cl)cc3cccc(c32)S1 (stereo unspecified) | inactive: -5.71% | 
O=C(Nc1ccc(Cl)cc1)C1CCCC1 | inactive: -20.7% | 
FC(F)(F)c1ccccc1CNCc1ccc2c(c1)OCO2 |  | inconclusive: 79.4 µM [inhibitor, single point]
COc1ccc(OC)c(NC(=O)CCN2CCN(CCO)CC2)c1 |  | inconclusive: 89.1 µM [inhibitor, single point]
CC1=CSC2=NS(=O)(=O)CCN12 | inactive: -4.56% | 
COc1ccc(Nc2oc(COc3ccc(Cl)cc3)nc2C#N)cc1 |  | inconclusive: 28.2 µM [inhibitor, full curve]
Cn1c(O)c(N=Nc2nc(-c3ccccc3)cs2)c2ccccc21 |  | inconclusive: 7.94 µM [inhibitor, full curve, poor fit]
Cc1cccn2cc(COc3ccc(-c4ccccc4)cc3)nc12 |  | inconclusive: 50.1 µM [inhibitor, partial curve]
COc1cccc(/C=C/c2nc(C#N)c(N3CCN(C)CC3)o2)c1 |  | inconclusive: 89.1 µM [inhibitor, single point]
Cn1nnnc1SCC(=O)NC(=O)Cc1ccccc1 | inactive: 8.21% | 
CCOC(=O)N1CCN(C(=O)C2CCN(S(=O)(=O)c3ccc(NC(C)=O)cc3)CC2)CC1 | inactive: -11.6% | 
CC(C)(C)n1cn[nH]c1=S | inactive: -19.6% | 
NC(=O)c1nsc(C(=O)N(c2cccc(F)c2)C(C(=O)NC2CCCC2)c2ccc(O)cc2)c1N (stereo unspecified) | inactive: -9.97% | 
